Measured values reported in the supplement of paper PMC3334620.
Over roughly 33,000 sequences, “E-score (-0.5 to 0.5)” has its median near -0.016; the highest 2% begin near 0.32. The list shows a part of the results.

What follows are sequences tested against T1, Stp1 (UniProt B3LFK1) (assay: PBM E-score (8-mer binding enrichment) (E-score (-0.5 to 0.5)); higher = stronger / more preferred TF binding; most listed sequences are background and not binding sites). Details: protein concentration: 200 nM; construct: GST-full length.
T1 sequence: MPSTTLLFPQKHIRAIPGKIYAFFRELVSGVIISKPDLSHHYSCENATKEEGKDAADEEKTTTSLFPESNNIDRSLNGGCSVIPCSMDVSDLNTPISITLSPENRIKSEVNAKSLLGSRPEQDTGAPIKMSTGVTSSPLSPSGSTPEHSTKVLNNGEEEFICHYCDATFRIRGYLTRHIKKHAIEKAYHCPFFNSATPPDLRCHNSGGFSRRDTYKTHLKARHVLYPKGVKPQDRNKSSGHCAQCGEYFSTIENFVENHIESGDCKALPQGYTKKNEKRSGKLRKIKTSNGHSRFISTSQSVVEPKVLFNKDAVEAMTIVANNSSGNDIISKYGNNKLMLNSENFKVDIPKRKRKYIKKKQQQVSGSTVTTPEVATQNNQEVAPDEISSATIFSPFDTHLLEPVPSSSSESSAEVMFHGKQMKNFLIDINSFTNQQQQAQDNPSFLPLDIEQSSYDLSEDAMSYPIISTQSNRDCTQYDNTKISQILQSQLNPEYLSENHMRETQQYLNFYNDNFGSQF
Summary of the method: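 Universal all-10-mer Agilent arrays, fresh or stripped once, were converted to double-stranded form by primer extension. GST-tagged yeast transcription factors from PURExpress in vitro transcription/translation, full-length or DNA-binding domain only, were applied at about 100-200 nM and detected with fluorescent anti-GST. After masliner normalisation, the Universal PBM Analysis Suite scored each ungapped eight-base word together with its reverse complement by E-score.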

| Sequence | PBM E-score |
| --- | --- |
| CACCTCGA | 0.0971 |
| ACTCAAAA | 0.18 |
| AGAACTCA | -0.113 |
| ATAAAGGC | 0.00184 |
| ACCCGTAC | 0.0646 |
| AGGCGGGC | -0.0735 |
| ACATGTCA | 0.0247 |
| AATTAGAA | -0.0118 |
| CGGGTCTA | -0.00926 |
| AGTAGTGG | 0.0284 |
| ACTGACCC | -0.246 |
| GCCCCGGA | -0.142 |
| GCAACCCA | -0.0504 |
| ACACGCAA | 0.0159 |
| TAGGATCA | -0.146 |
| AACGCGAG | -0.0531 |
| AAACACTT | -0.0497 |
| ATGTCAAA | 0.0322 |
| GACACTTA | -0.00223 |
| GCTGCAGA | 0.036 |
| GTTATTAA | 0.168 |
| AACTGCAG | -0.00144 |
| GGCGCACC | -0.0445 |
| CCAAACCA | -0.0602 |
| AGACGTAT | 0.0489 |

| Sequence | PBM E-score |
| --- | --- |
| AGTGATCA | -0.0602 |
| CAGACACC | -0.135 |
| CAAAGTGA | 0.0308 |
| CAACCCCA | -0.0817 |
| AGTTTGAT | 0.0118 |
| CTAGTCCA | -0.103 |
| CCCGACCG | -0.289 |
| GAATCGGA | 0.122 |
| GGCAACGA | 0.239 |
| CGAAGGGA | -0.126 |
| ACGATACG | 0.109 |
| CGGTCTCC | -0.179 |
| CCGCGGAA | 0.183 |
| CCCGGACC | -0.157 |
| CACCGTGC | 0.255 |
| AACTGCAA | -0.0173 |
| ATGTTCCC | -0.107 |
| TCAGTACA | 0.0749 |
| GCCGTGCC | 0.487 |
| AATACCGT | 0.171 |
| CTCTGACA | -0.0167 |
| AGCACCAC | -0.134 |
| CTACGAAA | -0.00866 |
| CATAAAGA | 0.0776 |
| CGACAATC | -0.161 |

| Sequence | PBM E-score |
| --- | --- |
| AGGAAAGC | -0.151 |
| ACTAAAGT | -0.0712 |
| AGTCTTCC | -0.0735 |
| GGTGAGAC | -0.138 |
| GAATTTGC | 0.1 |
| CGGATGCA | -0.0536 |
| ACCCCTAG | -0.233 |
| ACGTATAA | 0.113 |
| ATTCCAGC | 0.0208 |
| CCCCGTCA | -0.177 |
| ATAGGCGC | 0.161 |
| CTTGAAGC | 0.0461 |
| GAACTCAC | -0.0539 |
| AGAACCCA | -0.163 |
| ACACCAGT | -0.162 |
| ACACAAAC | 0.161 |
| GCCCTGGA | -0.0883 |
| CCCGATGC | -0.117 |
| GCACTGAC | -0.0501 |
| CCCAGACA | -0.22 |
| CCACGAGA | -0.181 |
| AGTCCTCC | -0.261 |
| GAGGACCA | -0.192 |
| GGCTATGA | -0.00825 |
| TATTTGGA | -0.0571 |

| Sequence | PBM E-score |
| --- | --- |
| CATAGGAA | -0.0906 |
| CGGCGGAA | 0.328 |
| AATCTAAT | 0.0617 |
| GTGTGTTA | 0.029 |
| ATCCGTGC | 0.41 |
| ATGGACCA | -0.035 |
| CGCGCAAC | 0.0208 |
| ACTATCCA | -0.131 |
| AAATGGGG | -0.139 |
| CCACGTTA | 0.0417 |
| ATAGGACA | -0.216 |
| CTCCCTCA | -0.23 |
| AACCCTTC | -0.11 |
| ATCAATAG | -0.0562 |
| AATTCGTC | 0.207 |
| CTAGAGTA | 0.0523 |
| ACGCTTGA | 0.127 |
| AGGCGCCG | 0.462 |
| AGTGTTAC | 0.061 |
| ACCGCATG | 0.126 |
| AAGGCCGT | 0.358 |
| CCGCAGCA | 0.269 |
| ATTACCTG | 0.0903 |
| CTTTTAAA | 0.193 |
| CAAAGGGC | 0.157 |

| Sequence | PBM E-score |
| --- | --- |
| ATGGGACG | -0.132 |
| CATGCTCG | -0.0846 |
| AAGGCTTA | -0.0391 |
| GTAGTATA | 0.121 |
| AAATGGCA | 0.246 |
| AGAGTACG | 0.0192 |
| TCCGTTCA | 0.0192 |
| ATTCTAAA | 0.109 |
| CCATTGAC | 0.0797 |
| AGATTAAA | 0.189 |
| CCAGCCGC | 0.125 |
| GAGGGACA | -0.0502 |
| ATGTTAAT | 0.117 |
| ATCGGAGC | -0.145 |
| ATAAGGGA | -0.128 |
| CGAAGGAA | 0.0454 |
| AGGCTCGC | -0.0985 |
| AACGTAAT | 0.0445 |
| CTGTTAAG | -0.0727 |
| ATTGTTAA | -0.0126 |
| CACCGCTA | -0.178 |
| CGGCCAAA | 0.145 |
| GTCGATTA | 0.00519 |
| TCACGTAA | -0.021 |
| GGTTACCA | -0.00326 |

| Sequence | PBM E-score |
| --- | --- |
| TCCATGAA | 0.0963 |
| CGAGCAAC | 0.213 |
| GCCCCCGC | -0.0565 |
| ACGGCCAT | 0.235 |
| GACGCTGA | -0.183 |
| AGCAAGCA | -0.192 |
| GCTTGACA | 0.18 |
| AACTGTGT | -0.00345 |
| TAGAGGAA | -0.158 |
| AAAGCGCT | 0.16 |
| ATCACGCA | 0.028 |
| ACGCGGAT | 0.236 |
| ATTTCCCG | 0.221 |
| CTGGTCGC | 0.0352 |
| CGTCGGGA | -0.134 |
| ATTGGCAA | 0.0625 |
| GTAGCGGA | 0.0599 |
| ACTAAGGC | 0.177 |
| CCGTGTTA | 0.262 |
| ACCTTTAG | -0.0106 |
| ATGTACTA | 0.155 |
| CCAATCAG | -0.218 |
| AGCGGCAG | 0.301 |
| CGTCACTA | 0.0552 |
| CCTGTTAA | -0.08 |

| Sequence | PBM E-score |
| --- | --- |
| ATAGAACA | 0.0308 |
| AGAGTGTA | -0.185 |
| AAAGGTCT | -0.012 |
| AATACACA | 0.0147 |
| CCCTCCGC | -0.288 |
| CGGCCCAC | -0.051 |
| GGCATCGA | 0.327 |
| GAAGCCGA | -0.0348 |
| TAGGGATA | -0.0306 |
| AGACGCCG | 0.405 |
| ACTTCAGA | -0.0204 |
| TAGCGCCA | 0.118 |
| GACAACCA | 0.0428 |
| CGGTCAAC | -0.0662 |
| CAACTGAG | 0.0666 |
| CCTCTTAG | 0.183 |
| CTGGTTAA | 0.111 |
| GGAATAAC | 0.0206 |
| ATGTGGAA | 0.062 |
| CACTCGCG | 0.219 |
| GCTGGGCC | -0.149 |
| CGGGAATC | -0.0825 |
| TATTCACA | 0.0764 |
| TAGTTTGA | 0.106 |
| CTCGTACA | 0.141 |

| Sequence | PBM E-score |
| --- | --- |
| AACCGGTG | -0.075 |
| ACGTGTGA | -0.0117 |
| ATCGCGTA | -0.111 |
| AACTCTTC | -0.189 |
| TAAACGTA | -0.0463 |
| ATAACGCC | 0.316 |
| ACTGTTCG | 0.137 |
| CCTCCTTA | -0.217 |
| AGTAATTA | -0.0328 |
| AGACGAGG | -0.0915 |
| CTATCCCA | -0.202 |
| ACCTATGG | -0.0452 |
| GAGAAACC | -0.185 |
| CCCCGTAG | -0.0863 |
| CTCAATGA | -0.0457 |
| CACTTCGG | -0.0156 |
| GGTTCTCA | -0.0635 |
| ATTATATG | 0.251 |
| AGTGGCAG | 0.0799 |
| CATCCAAA | 0.0865 |
| CGTGCGAC | 0.0732 |
| TAGGACCA | -0.182 |
| ACCTACCC | -0.194 |
| CCAATATC | -0.178 |
| ATCTCACA | -0.102 |

| Sequence | PBM E-score |
| --- | --- |
| GTCCGGGA | -0.0291 |
| ATAATTCC | -0.0659 |
| TGCGAAAA | 0.316 |
| CCTCACGA | 0.0853 |
| AGCAAAGC | -0.105 |
| TAACATTA | 0.0624 |
| GAGCCTAC | -0.0639 |
| ATGAAACG | 0.128 |
| CCCCGTAA | -0.0389 |
| ATTATTGA | 0.103 |
| CCAGCCAC | 0.0299 |
| AAATGTTG | -0.0281 |
| TACATGGA | -0.239 |
| AGAATGCT | 0.0521 |
| GAAAAGTC | -0.0853 |
| AAGAGAGG | 0.0404 |
| ACCCGTTG | -0.0746 |
| ACCGGAAC | -0.0464 |
| AGACGTTG | -0.0721 |
